Structures are written as SMILES. Screen size: about 310,000 compounds; about 14,000 (4.5%) showed an effect of 50% or more. Effects have a minus sign here. The list shows a part of the results.
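Note: peak tail current of the secondary pulse compared with the same well before compound.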

In this test the target is human ether-à-go-go-related gene (hERG) potassium channel (human, UniProt Q12809). In words: primary screen, population patch clamp on CHO cells stably expressing hERG.
Sequence of human ether-à-go-go-related gene (hERG) potassium channel (Q12809 whole entry, looked up): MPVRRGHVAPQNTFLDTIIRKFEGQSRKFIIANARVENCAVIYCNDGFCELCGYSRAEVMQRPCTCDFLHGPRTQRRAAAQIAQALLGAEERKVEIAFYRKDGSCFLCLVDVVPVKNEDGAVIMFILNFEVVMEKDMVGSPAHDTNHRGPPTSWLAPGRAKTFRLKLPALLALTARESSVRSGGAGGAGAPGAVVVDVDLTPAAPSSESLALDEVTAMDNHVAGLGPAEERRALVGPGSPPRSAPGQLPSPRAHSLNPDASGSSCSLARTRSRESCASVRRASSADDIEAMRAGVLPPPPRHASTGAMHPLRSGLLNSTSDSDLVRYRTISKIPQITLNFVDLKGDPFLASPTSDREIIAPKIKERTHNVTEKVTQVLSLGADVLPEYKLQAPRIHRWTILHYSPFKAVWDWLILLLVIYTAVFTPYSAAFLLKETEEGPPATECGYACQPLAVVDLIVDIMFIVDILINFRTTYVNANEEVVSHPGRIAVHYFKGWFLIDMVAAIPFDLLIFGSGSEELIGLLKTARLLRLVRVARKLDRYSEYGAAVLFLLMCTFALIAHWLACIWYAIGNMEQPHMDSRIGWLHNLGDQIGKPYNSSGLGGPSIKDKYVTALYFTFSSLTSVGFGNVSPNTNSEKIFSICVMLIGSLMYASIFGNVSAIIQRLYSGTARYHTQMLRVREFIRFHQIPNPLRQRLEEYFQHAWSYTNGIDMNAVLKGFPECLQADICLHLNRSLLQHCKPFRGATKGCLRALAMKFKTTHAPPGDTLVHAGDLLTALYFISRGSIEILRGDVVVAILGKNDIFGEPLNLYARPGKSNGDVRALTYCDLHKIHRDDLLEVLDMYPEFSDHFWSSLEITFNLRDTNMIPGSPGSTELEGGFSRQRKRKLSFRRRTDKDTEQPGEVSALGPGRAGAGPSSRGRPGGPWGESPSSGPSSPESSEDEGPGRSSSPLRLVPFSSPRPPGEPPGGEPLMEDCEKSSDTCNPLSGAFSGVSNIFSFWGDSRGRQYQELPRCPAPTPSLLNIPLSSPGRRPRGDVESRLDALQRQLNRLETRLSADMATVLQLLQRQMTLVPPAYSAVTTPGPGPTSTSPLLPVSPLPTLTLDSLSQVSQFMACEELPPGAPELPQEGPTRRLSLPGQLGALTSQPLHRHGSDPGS
As for `CC1(C2CC2)NC(=O)N(CC(=O)N2CCN(S(=O)(=O)c3ccc(F)c(F)c3)CC2)C1=O` (stereo not drawn), the “hERG current change (%, negative = inhibition) at 10uM” value amounted to 5.29%.
For `CCN(CC(=O)Nc1c(F)cccc1F)C(=O)Cn1c(=O)cnc2ccccc21`, the “hERG current change (%, negative = inhibition) at 10uM” value stood at 6.73%.
With `COc1cc(OC)c(NC(C)C(=O)NCc2ccccc2)cc1Cl` (stereo not drawn) the figure was 8.66%.
For `COc1cc2nc(COc3ccc(C#N)cc3)n(CC#N)c(=O)c2cc1OC`, the “hERG current change (%, negative = inhibition) at 10uM” value is on record as -50.7%.
With `Cc1ccc(Nc2nc(Cl)nc(N(C)C#N)n2)cc1` the figure was 6.93%; with `COc1ccc(N2CCN(Cc3cc(=O)oc4ccc5ccccc5c34)CC2)cc1`, 3.87%.
The figure for `Cc1ccc2c(C)c(C(=O)N3CCN(Cc4ccccn4)CC3)oc2c1C` is -23.1%; for `CCN(CC)S(=O)(=O)c1ccc(OC)c(NC(=O)c2ccc3c(c2)OCO3)c1` it is -3.23%; for `Nc1ccc(C#Cc2ccc3c(=O)c4ccccc4oc3c2)cc1` it is 21.8%.
The figure for `Cc1cc(C(F)(F)F)c(C#N)c(SCC(=O)NC(C)(C)C)n1` is -3.9%.
On to `CCCC(=O)Nc1ccc2oc(=O)ccc2c1`, for which the “hERG current change (%, negative = inhibition) at 10uM” value turned out to be 6.68%.
With `COc1ccc(CCNC(=O)Cc2ccc(Cl)cc2)cc1OC` the figure was 24.3%; with `Cc1cccc(OCCCC(=O)NCC(=O)Nc2cccc(C)c2C)c1`, 8.44%.
The figure for `Cc1cc2ncn(C3CC(=O)N(C)C3=O)c2cc1C` (stereo not drawn) is 7.19%; for `O=C(NC(Cc1ccccc1)C(=O)O)c1ccc(S(=O)(=O)N2CCCCC2)cc1` (stereo not drawn) it is 23.7%.
With `Cc1c(NC(=S)N/N=C/c2ccc(N(C)C)cc2)c(=O)n(-c2ccccc2)n1C` the figure was 19%; with `CN(C(=O)Cc1c(C(=O)O)n(C)c2ccccc12)c1ccc(Cl)cc1`, 21.7%.
On to `O=C(C[N+]12CCC(CC1)C(CO)C2)c1ccc(Br)cc1.[Br-]` (stereo not drawn), for which the “hERG current change (%, negative = inhibition) at 10uM” value is on record as -3.89%.
The figure for `CC(=O)Nc1ccc(OCC(=O)N2CCC(Cc3ccccc3)CC2)cc1` is -26.4%.
With `CCC1CN(C(=O)N2CCC(C(=O)NCc3cccc(F)c3)CC2)c2ccccc2O1` (stereo not drawn) the figure was -9.87%.
With `O=C(CCNC(=O)c1ccco1)NCCc1ccc(Cl)cc1` the figure was -1.83%.
For `COc1ccc(NC(=O)N(CCCN2CCOCC2)Cc2cccnc2)c(OC)c1`, the “hERG current change (%, negative = inhibition) at 10uM” value was determined as 5.99%.
With `O=C(CSc1nnc2n1CCCN2)c1ccc(Cl)cc1` the figure was -10.3%; with `CCOc1ccc2oc(C(=O)Nc3cc(C)ccn3)c(C)c2c1`, -0.308%.
The figure for `COc1ccc(OC)c(S(=O)(=O)N2CCC(C(=O)NCc3ccccc3OC)CC2)c1` is -16.3%; for `O=C(NC1CC1)c1cc2c(s1)-c1ccccc1OC2` it is 12.6%; for `COC(=O)C(CSCc1ccccc1)NC(=O)CSc1nc(N)cc(=O)[nH]1` (stereo not drawn) it is 33.5%.
Consider `Cc1cc(C)c2[nH]c(=O)c(C(c3nnnn3Cc3ccc4c(c3)OCO4)N3CCCCC3)cc2c1` (stereo not drawn), for which the “hERG current change (%, negative = inhibition) at 10uM” value is -4.85%.
As to `O=C1Nc2ccccc2/C1=N/N=C/c1cccc(O)c1`, the “hERG current change (%, negative = inhibition) at 10uM” value is given as -7.68%.
The figure for `Cc1cc2oc(=O)cc(COC(=O)c3n[nH]c4ccccc34)c2cc1C` is 1.28%; for `O=C(COc1ccc(Br)cc1Cl)NC(=O)NC1CCCC1` it is -9.03%; for `Cc1ccc(C)c(OCC(=O)N/N=C\c2cccn2C)c1` it is 16.5%.
For the compound `CCOc1cnn(-c2ccccc2)c(=O)c1Cl`, the “hERG current change (%, negative = inhibition) at 10uM” value came to 18.4%.
The figure for `CN(C)CCCNC(=O)C1(O)c2cc(Br)ccc2NC(=O)N1c1ccc(Cl)cc1` (stereo not drawn) is 22.4%; for `COc1ccc(Nc2ncnc3sccc23)c(OC)c1` it is 18.1%.
The figure for `CNC(=O)CSc1nnc(COc2ccc(Cl)cc2)n1CCOC` is -11.8%.
With `O=[N+]([O-])c1cccnc1N1CCC(c2cc(-c3ccc(Cl)cc3Cl)n[nH]2)CC1` the figure was 0.131%; with `CSc1sc(C(=O)N2CCCCC2)c(-c2cccs2)c1C#N`, -27.7%.
As to `CCOC(=O)c1ccc(NC(=S)N2CCSC2c2ccc(Br)cc2)cc1` (stereo not drawn), the “hERG current change (%, negative = inhibition) at 10uM” value is on record as 5.4%.
The figure for `CC1CN(c2nc3c(c(=O)n(Cc4ccc(Cl)cc4)c(=O)n3C)n2C)CC(C)O1` (stereo not drawn) is -31.2%; for `Cc1cc(C)c(S(=O)(=O)O)c(C)n1` it is 15.1%; for `CCOc1ccc2[nH]cc(C(=O)O)c(=O)c2c1` it is -1.35%.
With `COc1ccccc1N1CCN(C(c2ccccc2)c2nnnn2CCc2ccccc2)CC1.Cl` (stereo not drawn) the figure was 14.9%.
The figure for `Cc1ccc(C)c(OCC(=O)Nc2ccc3c(c2)OCO3)c1C` is -5.11%.
Turning to `COC(=O)c1ccc(O)c(Sc2cc(C(=O)OC)ccc2O)c1`, the “hERG current change (%, negative = inhibition) at 10uM” value worked out at 5.37%.
With `CCOC(=O)c1c(C)nc2ccccc2c1C.Cl` the figure was -4.65%; with `O=C(Nc1ccc(Cl)cn1)c1cc2c(s1)-c1ccccc1OC2`, 12.3%; with `Cc1ccc(C)c(NC(=O)/C(C#N)=C/c2ccc(Sc3nncn3C)c([N+](=O)[O-])c2)c1`, -2.24%.
For the compound `CN1CCN(c2ccc(S(=O)(=O)N3CCCCC3)cc2NC(=O)c2ccc(C#N)cc2)CC1`, the “hERG current change (%, negative = inhibition) at 10uM” value was -41.7%.
The figure for `NC(=O)CCCc1nc(-c2ccccc2Cl)no1` is 6.58%.
As to `CN(Cc1cccnc1)Cc1cn(C)nc1-c1ccc(Oc2ccccc2)cc1`, the “hERG current change (%, negative = inhibition) at 10uM” value is -27.9%.
With `COc1ccc(C2C(C(=O)Nc3cc(C)on3)c3ccccc3C(=O)N2C)cc1OC` (stereo not drawn) the figure was -2.66%.
The figure for `COc1ccc(S(=O)(=O)CCc2nnc(NC(C)=O)s2)cc1` is 22.6%; for `C=CCN1C(=O)c2ccccc2Sc2ccc(C(=O)N3CCN(C)CC3)cc21` it is -13%.
On to `Cc1ccc(S(=O)(=O)/N=C(/c2ccc(F)cc2)N2CCOCC2)cc1`, for which the “hERG current change (%, negative = inhibition) at 10uM” value was found to be 1.28%.
As to `CC(=O)Nc1ccc(NC(=O)C2CCCN(C(=O)c3ccc(Cl)cc3)C2)cc1` (stereo not drawn), the “hERG current change (%, negative = inhibition) at 10uM” value is 6.47%.
`COc1ccc([C@@H]2CC=C(C(=O)O)CN2S(=O)(=O)c2ccc(C)cc2)cc1OC`: the “hERG current change (%, negative = inhibition) at 10uM” value is listed as 26.9%.
The figure for `Cc1nn(-c2ccccc2)c(Cl)c1/C=C(\CC(=O)O)c1nc2ccccc2s1` is -5.54%.
With `O=P(Oc1ccccc1)(Oc1ccccc1)N1CCN(c2ccc(F)cc2)CC1` the figure was 7.23%.
The figure for `C/C(=N\NC(=S)NCc1ccccc1)c1ccccc1` is -0.412%.
Take `CC(=O)N1CCC2(CC1)CC(=O)c1cc(OCC(=O)NCc3ccc(C)cc3)ccc1O2`: the “hERG current change (%, negative = inhibition) at 10uM” value is on record as -21.3%.
The figure for `COc1ccccc1N1CCN(C(=O)CCNC(=O)Cn2ccc3ccccc3c2=O)CC1` is 2.62%; for `Cc1cc(OCC(=O)Nc2ccncc2)ccc1Cl` it is 2.32%.
With `Cc1nc(Nc2ccc(S(=O)(=O)N3CCCCC3C)cc2)c2nnn(Cc3ccccc3)c2n1` (stereo not drawn) the figure was 12.8%.
The figure for `CC1CCCC(C)N1C(=O)CSc1nc2c(c(=O)n(C)c(=O)n2C)n1C` (stereo not drawn) is 5.34%.
For `CC(Cc1ccccc1)C(=O)N(C)Cc1ccccc1` (stereo not drawn), the “hERG current change (%, negative = inhibition) at 10uM” value is listed as -2.04%.
With `O=C(Nc1ccc(S(=O)(=O)NCC2CCCO2)cc1)c1ccccc1` (stereo not drawn) the figure was 2.19%; with `COc1ccccc1NC(=S)N(CCc1nc2cc(C)c(C)cc2[nH]1)Cc1cccnc1`, -40%.
The figure for `CCN(CC)Cc1c(C(=O)N/N=C/c2cccc3ccccc23)nnn1-c1nonc1N` is -10.5%; for `CC1(C)Cc2c(sc(NC(=O)COc3ccc(Cl)cc3Cl)c2C(N)=O)C(C)(C)N1` it is 12.1%; for `CCN(CC)S(=O)(=O)c1ccc(C)c(NC(=O)c2cc(C)oc2C)c1` it is -41.7%.
With `Cl.N=c1c[n+](C2CCCCC2)[n-]o1` the figure was 8.71%; with `O=C(CN1C(=O)NC2(CCCC2)C1=O)OCCOc1ccc(Cl)cc1Cl`, -23.3%.
Take `CCOC(=O)C(C)c1ccc2cc(OC)ccc2c1` (stereo not drawn): the “hERG current change (%, negative = inhibition) at 10uM” value turned out to be 4.01%.
The figure for `O=C(CNC(=O)c1sc2ccccc2c1Cl)NCc1cccc(C(F)(F)F)c1` is -11.9%; for `O=[N+]([O-])c1ccc(N/N=C/c2cccc(O)c2O)cc1` it is 10.8%.
Consider `CCOc1ccc(S(=O)(=O)N2CCN(c3ncccn3)CC2)cc1`, for which the “hERG current change (%, negative = inhibition) at 10uM” value came to 9.1%.
The figure for `CC(C)=CC(=O)N1CCC(N2CCC(C(=O)NCC3CCCO3)CC2)CC1` (stereo not drawn) is 15.4%; for `COc1cc(/C=C/C(=O)O)ccc1OS(=O)(=O)c1c(C)cc(C)cc1C` it is -43.2%; for `CCN1CCN(c2ccc(NC(=O)Cc3ccccc3)cc2)CC1` it is -23.5%.
Turning to `Cc1c(C(=O)NCCSc2ccc(Cl)cc2)cccc1[N+](=O)[O-]`, the “hERG current change (%, negative = inhibition) at 10uM” value is -22.3%.
With `COc1ccc(N2C(=O)C(CC(=O)Nc3ccccc3)N(CCc3ccc(OC)c(OC)c3)C2=O)cc1` (stereo not drawn) the figure was 6.25%.
For `CCCCn1c(N)c(N(CCOC)C(=O)CSCc2c(C)noc2C)c(=O)[nH]c1=O`, the “hERG current change (%, negative = inhibition) at 10uM” value was determined as 17.1%.
With `Cc1cnc(C(=O)OCC(=O)Nc2ccc(Oc3ccccc3)cc2)cn1` the figure was 1.75%.
With `COc1ccc2c(c1)nc(SCC(=O)C(C)(C)C)n2C` the figure was -2.82%; with `O=C(O)c1cccc(-c2nnn(Cc3ccccc3Cl)n2)c1`, -2.59%.
The figure for `O=C(CCn1nnc2ccccc2c1=O)NCC1CCC(C(=O)O)CC1` (stereo not drawn) is 9.84%.

The values are drawn from publication PMC4336329 (PLoS ONE, 2015).
